{"source": "PubChem BioAssay AID1963576", "about": "(National Center for Advancing Translational Sciences (NCATS), 2024)", "note": "Screen size: about 46,000 compounds; about 60 (0.1%) were called active. Another 3% or so got no clear call; they are omitted. Calls follow the shape of the dose curve; as a rule, active = well fitted inhibition curve with a large enough effect; inconclusive = small, poorly fitted or top-dose-only effect; inactive = no such curve, though single readings can be large or run the other way. The list shows a part of the results.", "data": [{"assay": "Primary qHTS assay for Inhibitors of ovarian cancer metastasis using an organotypic tumor microenvironment (TME) model; also: nearly all actives have a fitted effect of over 65% in size;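 as to activity change, negative = inhibition: plate controls were DMSO wells for no effect and tomatine positive control wells for full effect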.", "conditions": "SKOV3ip1-GFP adhesion/invasion on 3D omental model, fluorescence; series mostly up to 45.8 µM; activity change, negative = inhibition: at the top concentration", "how_it_was_run": "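Adhesion/invasion was scored as fixed GFP-labeled SKOV3ip1 cell counts (488/509 nm), normalized to DMSO and tomatine controls. Cancer cells in serum-free medium, with four compound doses (0.36-46 umol/L), sat 2 hr at RT then 16 hr at 37 C on a 48 hr fibroblast/mesothelial/ECM culture.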", "values": [{"smiles": "COc1ccc(NC(=O)C2CCC(CNS(=O)(=O)c3ccc(Br)s3)CC2)cc1OC", "note": "(centres undefined)", "activity change, negative = inhibition": "inactive: -19.6%"}, {"smiles": "CCCC(=O)OCc1cnc(C)c2oc(=O)c(C(=O)Nc3ccccc3)cc12", "activity change, negative = inhibition": "inactive: -15.3%"}, {"smiles": "COc1ccc(OC)c(NC(=O)CSc2nc3ccccc3nc2N2CCCCC2)c1", "activity change, negative = inhibition": "inactive: -0.94%"}, {"smiles": "CCc1ccccc1NC(=O)c1ccc2c(c1)N(Cc1cc(C)ccc1C)C(=O)c1ccccc1S2(=O)=O", "activity change, negative = inhibition": "inactive: -5.39%"}, {"smiles": "COC(=O)c1cc2sccc2n1Cc1nc(-c2ccc(Cl)cc2)oc1C", "activity change, negative = inhibition": "inactive: 7.8%"}, {"smiles": "Cc1cc(C)n(C(C)CC(=O)NCc2ccc(N(C)C)cc2)n1", "note": "(centres undefined)", "activity change, negative = inhibition": "inactive: 3.82%"}, {"smiles": "CCOCCCn1c(SCC(=O)Nc2ccc(C)cc2)nc2ccccc2c1=O", "activity change, negative = inhibition": "inactive: 37.2%"}, {"smiles": "O=C(CSc1nccn1Cc1ccc(Cl)cc1)Nc1ccc2c(c1)OCCO2", "activity change, negative = inhibition": "inactive: 0.781%"}, {"smiles": "COc1cccc(C(c2c(O)cc(C)n(Cc3ccco3)c2=O)N2CCN(c3ccccc3)CC2)c1", "note": "(centres undefined)", "activity change, negative = inhibition": "inactive: -2.73%"}, {"smiles": "COc1cc(Cl)c(C)cc1NC(=O)Cn1ncc2c([nH]c3ccccc32)c1=O", "activity change, negative = inhibition": "inactive: 1.79%"}, {"smiles": "COc1ccccc1NC(=O)C1=C(C)Nc2nc(SCc3ccccc3C)nn2C1CC(C)C", "note": "(centres undefined)", "outcome": "inactive"}, {"smiles": "COc1ccc(CNC(=O)C(C)n2ccc3cc(S(=O)(=O)N4CCCC4)ccc32)cc1OC", "note": "(centres undefined)", "activity change, negative = inhibition": "inactive: 7.37%"}, {"smiles": "CCc1ccc2oc(C(=O)Nc3nonc3CC)c(C)c2c1", "outcome": "inactive"}, {"smiles": "COc1ccc(-n2ncc(C(=O)N3CCc4ccccc4C3)c2C2CCN(C(=O)OC(C)(C)C)CC2)cc1", "outcome": "inactive"}, {"smiles": "Cc1cc(C)cc(NS(=O)(=O)c2ccc3c(c2)CCCN3C(=O)C2CCC2)c1", "activity change, negative = inhibition": "inactive: 1.51%"}, {"smiles": "O=C(Nc1ccc(Br)cc1F)c1ncoc1-c1ccco1", "activity change, negative = inhibition": "inactive: -2.66%"}, {"smiles": "Cc1oc2ncn(C)c(=O)c2c1C(=O)NCCCN1CCCC(C)C1", "note": "(centres undefined)", "activity change, negative = inhibition": "inactive: -1.71%"}, {"smiles": "COCCCNC(=O)c1ccc2c(=O)n(Cc3ccc(OC)cc3)c(=O)[nH]c2c1", "activity change, negative = inhibition": "inactive: 13.8%"}, {"smiles": "O=C(CN1C(=O)COc2ccc(S(=O)(=O)N3CCOCC3)cc21)N1CCN(c2ccccc2)CC1", "activity change, negative = inhibition": "inactive: -3.64%"}, {"smiles": "COC(=O)[C@@H]1CC2=CC(=O)CC[C@]2(C)[C@@]23O[C@@H]2C[C@@]2(C)[C@H](CC[C@@]24CCC(=O)O4)[C@@H]13", "activity change, negative = inhibition": "inactive: -0.985%"}, {"smiles": "CCOc1cc(-c2nc(-c3ccc(Br)cc3)no2)cc(OCC)c1OCC", "activity change, negative = inhibition": "inactive: -7.94%"}, {"smiles": "O=C(COc1ccccc1)N(Cc1cccnc1)c1nc2ccc(F)cc2s1", "activity change, negative = inhibition": "inactive: -1.27%"}, {"smiles": "COc1ccc(-c2cc(C(F)(F)F)n3nc(C(=O)NCC45CC6CC(CC(C6)C4)C5)cc3n2)cc1", "activity change, negative = inhibition": "inactive: -2.18%"}, {"smiles": "COc1ccc(CNC(=O)CN(c2cc(C)cc(C)c2)S(=O)(=O)c2c(C)[nH]c(=O)[nH]c2=O)cc1", "activity change, negative = inhibition": "inactive: 0.867%"}, {"smiles": "CCOC(=O)c1c(NC(=O)c2cc(C(C)C)on2)sc(C)c1C", "activity change, negative = inhibition": "inactive: 9.53%"}, {"smiles": "Cc1cccc(CSc2nc3c(c(=O)[nH]2)C(c2cccc(O)c2)CC(=O)N3)c1", "note": "(centres undefined)", "activity change, negative = inhibition": "inactive: -15.1%"}, {"smiles": "Cc1ccc(S(=O)(=O)C(CNC(=O)c2ccccc2F)c2cccs2)cc1", "note": "(centres undefined)", "activity change, negative = inhibition": "inactive: 5.49%"}, {"smiles": "Cc1cccc(CN2CCN(CC(=O)NCc3ccc(Cl)cc3)C2=O)c1", "outcome": "inactive"}, {"smiles": "CC(C)(C)C(=O)Oc1ccc(S(=O)(=O)Nc2ccccc2C(=O)NCC(=O)O)cc1", "activity change, negative = inhibition": "inactive: 13.3%"}, {"smiles": "COc1ccc(C2=C(C)C(=O)N(Cc3ccc(C(=O)NCc4ccc(C)cc4)cc3)S2(=O)=O)cc1", "outcome": "inactive"}, {"smiles": "COc1ccc(CCNC(=O)C2CCCN(c3nc4c(C)cc(C)cc4s3)C2)cc1OC", "note": "(centres undefined)", "activity change, negative = inhibition": "inactive: 4.64%"}, {"smiles": "Cc1nc(-c2ccc(C)c(S(=O)(=O)N3CCC(C(=O)NCc4ccc(Cl)cc4)CC3)c2)no1", "activity change, negative = inhibition": "inactive: -5.55%"}, {"smiles": "Cn1c(SCc2ccc(F)cc2)nc2ccc(C(=O)NCc3ccccc3)cc21", "activity change, negative = inhibition": "inactive: -1.38%"}, {"smiles": "Cc1ccc(OCC(=O)Nc2ccc(S(=O)(=O)N(Cc3ccccc3)c3ccccc3)cc2)cc1", "activity change, negative = inhibition": "inactive: -14.8%"}, {"smiles": "CCCCn1cc(S(=O)(=O)c2ccc(Cl)cc2)c(=O)c2cc(F)c(N3CCCCC3)cc21", "activity change, negative = inhibition": "inactive: -8.24%"}, {"smiles": "Cc1cc(C)c2oc(C(=O)Nc3c(C(=O)Nc4ccccc4)oc4ccccc34)cc(=O)c2c1", "activity change, negative = inhibition": "inactive: -0.148%"}, {"smiles": "CCc1ccc2occ(CC(=O)Nc3sc4c(c3C(=O)OC)CCC4)c2c1", "activity change, negative = inhibition": "inactive: -3.86%"}, {"smiles": "CSC1=NC2(CCN(C(=O)NC3CCCCC3)CC2)N=C1c1ccc(C(C)(C)C)cc1", "activity change, negative = inhibition": "inactive: -3.49%"}, {"smiles": "COc1cccc(N2C(=O)CSC23C(=O)N(CC(=O)NCc2ccc(C)cc2)c2ccccc23)c1", "note": "(centres undefined)", "outcome": "inactive"}, {"smiles": "O=C(C1CCN(c2nc3ccccc3[nH]2)CC1)N1CCN(c2cccc(Cl)c2)CC1", "activity change, negative = inhibition": "inactive: -6.73%"}, {"smiles": "Cc1cc(C(C)(C)C)c(O)c(C)c1CC1=NCCN1", "activity change, negative = inhibition": "inactive: -1.13%"}, {"smiles": "CCOC(=O)c1c(-c2ccc(OC)c(OC)c2)csc1NC(=O)c1ccc(F)cc1", "activity change, negative = inhibition": "inactive: -7.21%"}, {"smiles": "Cc1cccc(C(=O)Nc2ccccc2C(=O)OCc2cc(=O)n3nc(C4CC4)sc3n2)c1", "activity change, negative = inhibition": "inactive: 9.35%"}, {"smiles": "COc1cc2c(-c3ccccc3Cl)nc3c(c(C)nn3-c3ccccc3)c2cc1OC", "activity change, negative = inhibition": "inactive: -14%"}, {"smiles": "Cc1nc2ccc(S(=O)(=O)NC(C(=O)NCc3ccc(Cl)cc3)C(C)C)cc2s1", "note": "(centres undefined)", "activity change, negative = inhibition": "inactive: 2.15%"}, {"smiles": "COc1ccccc1CNC(=O)c1c(O)nc2cc(C)ccn2c1=O", "outcome": "inactive"}, {"smiles": "Cc1ccc(Nc2c(-c3ccc(N4CCOCC4)cc3)nc3ncccn23)cc1C", "activity change, negative = inhibition": "inactive: -6.71%"}, {"smiles": "COc1cc(NC(=O)Cn2cnc3sc(C)c(S(=O)(=O)N4CCN(C)CC4)c3c2=O)cc(OC)c1OC", "activity change, negative = inhibition": "inactive: -2.22%"}, {"smiles": "CCOC(=O)c1ccc2c(c1)N(CC(=O)Nc1ccc(CC)cc1)C(=O)c1ccccc1S2", "outcome": "inactive"}, {"smiles": "CC(C)c1ccc(NC(=O)C2CCCN(S(=O)(=O)c3ccc4[nH]c(=O)ccc4c3)C2)cc1", "note": "(centres undefined)", "activity change, negative = inhibition": "inactive: -23.1%"}, {"smiles": "CCc1ccc(Cn2nnc(C(=O)Nc3ccc(C)cc3)c2N)cc1", "outcome": "inactive"}, {"smiles": "CCCN(CCC)CCCNC(=O)c1cn(CC)c2ccc(S(=O)(=O)N3CCc4ccccc4C3)cc2c1=O", "activity change, negative = inhibition": "inactive: -9.09%"}, {"smiles": "COc1cccc(CNCCSc2nnnn2C)c1OCc1ccc(Cl)cc1", "outcome": "inactive"}, {"smiles": "CCOC(=O)c1oc2ccc(S(=O)(=O)n3nc(-c4cc(OCC)c(OCC)c(OCC)c4)cc3N)cc2c1C", "activity change, negative = inhibition": "inactive: 6.63%"}, {"smiles": "CCN(c1ccc(C)cc1C)S(=O)(=O)c1nnc(NC(=O)c2ccccc2OC)s1", "activity change, negative = inhibition": "inactive: 11.4%"}, {"smiles": "CCOC(=O)c1ccc(NC(=O)CC2C(=O)N(c3ccccc3)C(=O)N2C2CCCCC2)cc1", "note": "(centres undefined)", "outcome": "inactive"}, {"smiles": "CCOc1cccc(C(=O)Nc2ccc(NC(=O)c3ccc(Br)cc3)cc2)c1", "activity change, negative = inhibition": "inactive: 4.81%"}, {"smiles": "O=C(CSc1oc(-c2ccco2)nc1S(=O)(=O)c1ccccc1)c1ccc(Cl)cc1", "activity change, negative = inhibition": "inactive: 5.51%"}, {"smiles": "CCN1CCN(c2cc3c(cc2F)c(=O)c(S(=O)(=O)c2cc(C)cc(C)c2)cn3CC)CC1", "activity change, negative = inhibition": "inactive: -0.613%"}]}]}
